Experimental data as given in PubChem BioAssay AID686978 (National Center for Advancing Translational Sciences (NCATS), 2013).
Out of some 420,000 compounds screened, about 64,000 (15%) were called active. This list was built around the results that the source calls inconclusive (neither active nor inactive); the mix of calls is not that of the screen. Calls come from the whole dose curve; as a rule, active = well fitted inhibition curve with a large enough effect; inconclusive = small, poorly fitted or top-dose-only effect; inactive = flat fitted curve, though single readings scatter. Potencies of inconclusive entries are left out as doubtful fits. Numbered stars: 1 amine (or outer) side, 2 acyl side, 3 side chain; on linkers, the order of the positions; unused ones are H or OH. Square brackets hold non-standard residues; d marks the D form. Peptide text beside a SMILES is read from it. ξ: configuration not given here. X6 = CCCCCCC[C@H](O)C[C@@H](N[*:1])[C@@H](O)C(=O)[*:2]; X8 = COc1ccc(CCCC(N[*:1])C(=O)[*:2])cc1; ξThr(3R) = C[C@@H](O)C(N)C(=O)O; NMeN = CN[C@@H](CC(N)=O)C(=O)O; X7 = C/C=C(/N[*:1])C(=O)[*:2]; Dhb = C/C=C(\N)C(=O)O; Sar = CNCC(=O)O

Test: qHTS for Inhibitors of human tyrosyl-DNA phosphodiesterase 1 (TDP1): qHTS in cells in absence of CPT; note: nearly all actives have a fitted effect of over 55% in size
Details: DT40 Tdp1-/- hTDP1 cells, no CPT, ATP luminescence, 48 h; activity change, negative = growth inhibition: at 46.2 µM (top of the series) unless noted
Summary of the method: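 Camptothecin absent (DMSO only). Human TDP1-complemented DT40 knockout cells, 400 cells/well, 37 °C for minimum 48 hr; ATP measured via CellTiter-Glo, 30 min dark incubation, luminescence.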
% is set by controls: 0 for no effect and ±100 for the full control effect; potency is the fitted concentration of half-maximal effect; tags give direction and shape of the fitted curve.

| Structure (SMILES) | activity change, negative = growth inhibition | Potency |
| --- | --- | --- |
| O=C(CNC(=O)c1ccc(-c2ccccc2)cc1)Nc1ccc(S(=O)(=O)Nc2ncccn2)cc1 | inactive: -0.552% | – |
| CC(OC(=O)CNC(=O)c1ccc(Cl)c([N+](=O)[O-])c1)C(=O)NCc1ccco1 (centres undefined) | inactive: 0.37% | – |
| CCCCOC(=O)c1ccc(NC(=O)/C=C/c2cccs2)cc1 | – | inconclusive [inhibitor, single point] |
| O=C(Cc1ccccc1)NS(=O)(=O)c1ccc(N=NN2CCOCC2)cc1 | inactive: -2.39% | – |
| C/C1=C\CCC2C(/C=C(\C)CC1)OC(=O)C2CN1CCCCC1 (centres undefined) | – | inconclusive [inhibitor, partial curve, poor fit] |
| O=C1c2ccc3c4c(ccc(c24)C(=O)N1c1cccc(O)c1)CC3 | – | inconclusive [inhibitor, single point] |
| CC(C)NC1(C(N)=O)CCNCC1 | – | inconclusive [inhibitor, full curve, poor fit] |
| COc1cccc2c(SCC(=O)N/N=C/c3ccccc3)cc(C)nc12 | – | inconclusive [inhibitor, partial curve, poor fit] |
| O=C(N/N=C/c1ccc(F)cc1)c1sccc1OCc1ccc(F)cc1 | – | active: 18.4 µM |
| CCOC(=O)C1CCCN(C(=O)c2oc3ccccc3c2C)CC1 (centres undefined) | inactive: -28.6% | – |
| CCCn1c(C)nc2c(c1=O)c1nc3ccccc3nc1n2CCC1=CCCCC1 | – | inconclusive [inhibitor, single point] |
| C=CCc1ccc(OCCOCCOc2ccc(C)cc2[N+](=O)[O-])c(OC)c1 | – | inconclusive [inhibitor, partial curve] |
| O=C(N/C(=C/c1ccc(Cl)cc1)C(=O)N1CCCC1)c1ccccc1 | – | inconclusive [inhibitor, partial curve] |
| COc1ccc(-c2cc(C(=O)NC(C)c3ccccn3)c3ccccc3n2)cc1OC (centres undefined) | – | active: 20.6 µM |
| COc1ccc(-c2nc3cnc(OC)nc3n(-c3ccc(OC)cc3)c2=O)cc1 | – | active: 0.92 µM |
| CNC(=O)c1ccccc1Sc1ccc2c(/C=C/c3ccccn3)n[nH]c2c1 | – | active: 2.66 µM |
| CCc1ccc(OCC(=O)NC(NC(=S)Nc2ccc(Cl)cc2)C(Cl)(Cl)Cl)cc1 (centres undefined) | – | active: 13 µM |
| Cc1cc(C)c2c(-n3cccc3)c(C(=O)NNS(=O)(=O)c3ccc(Cl)cc3)sc2n1 | inactive: -12.5% | – |
| N#Cc1ccc(Oc2ccc(-c3cnc4ccccc4n3)cc2)cc1C#N | – | inconclusive [inhibitor, full curve] |
| Cc1ccc(-c2nnc(SCC(=O)NCC3CCCO3)nc2-c2ccc(C)cc2)cc1 (centres undefined) | – | active: 23.1 µM |
| C(=N\Nc1ccc2nncn2n1)/c1ccccn1 | – | active: 23.1 µM |
| CCOC(=O)c1c(C)[nH]c(CCC(=O)Nc2ccc(OC)c(OC)c2)c1C | – | inconclusive [inhibitor, single point] |
| Cc1noc(C)c1S(=O)(=O)N1CCC(C(=O)N2CCN(c3cccc(C(F)(F)F)c3)CC2)CC1 | – | active: 3.26 µM |

| Structure (SMILES) | activity change, negative = growth inhibition | Potency |
| --- | --- | --- |
| Cc1cccc2c1N(CC(=O)OC(C)C)C(=O)C2=O | – | inconclusive [inhibitor, single point] |
| COc1ccc(C(=O)N/C(=C\c2ccco2)C(=O)OCc2ccco2)cc1 | inconclusive: -38.7% [inhibitor] | – |
| COc1cc(C(c2sc3nc(C)nn3c2O)N2CCN(c3ccccc3)CC2)cc(OC)c1OC (centres undefined) | – | inconclusive [inhibitor, single point] |
| O=C(CC(=O)c1ccncc1)c1ccccc1 | – | inconclusive [inhibitor, single point] |
| COc1ccc(S(=O)(=O)N2CCN(C(=O)NCc3ccc(C)cc3)CC2)cc1 | inactive: -24.9% | – |
| O=C(CCNS(=O)(=O)c1ccccc1C(F)(F)F)N1CCN(S(=O)(=O)c2cccc(F)c2)CC1 | – | inconclusive [inhibitor, partial curve] |
| CCN(C(=O)COC(=O)c1cccc(S(=O)(=O)NCc2ccccc2)c1)c1ccccc1 | – | inconclusive [inhibitor, single point] |
| Cc1ccccc1SCC(=O)NCC1(N2CCCCC2)CCCCC1 | – | inconclusive [inhibitor, single point] |
| COC(=O)c1ccccc1NC(=O)c1cc(C2CC2)on1 | inconclusive: -10.2% [inhibitor] | – |
| CC1=CC2=NC(=O)/C(=C\c3cc(C)n(-c4cccc(Cl)c4)c3C)C(=N)N2O1 | – | active: 9.2 µM |
| CC(=O)n1c(Cl)c(NC(=O)CCl)c2ccccc21 | – | active: 11.6 µM |
| Cc1cccc(N2CCN(C(=O)CCC(=O)N3CCOc4ccc(Cl)cc43)CC2C)c1 (centres undefined) | – | inconclusive [inhibitor, single point] |
| O=C(c1ccc(S(=O)(=O)Cc2cc(F)ccc2F)c([N+](=O)[O-])c1)N1CCCC1 | – | active: 2.91 µM |
| Cc1ccsc1C(=O)OCC(=O)c1cc(C)n(C)c1C | – | inconclusive [inhibitor, partial curve] |
| COc1ccc(CCNc2ncnc3sc(C(=O)N4CCCCC4)c(C)c23)cc1OC | – | active: 18.4 µM |
| CCOC(=O)C1(Cc2ccc(OC)cc2)CCN(C(=O)Cn2cnnn2)CC1 | inactive: -0.411% | – |
| COc1ccc(C2CC(=O)c3cc(-c4nc(-c5ccc(Cl)cc5)cs4)c(=O)[nH]c3C2)cc1OC (centres undefined) | – | inconclusive [inhibitor, single point] |
| CCSc1nnc(NC(=O)CSc2sc3c(O)cc(=O)[nH]c3c2C#N)s1 | inactive: 7.07% | – |
| CCC(c1nnnn1C(C)(C)CC)N(CCCO)Cc1cc2cccc(C)c2[nH]c1=O (centres undefined) | inactive: -21.5% | – |
| C/C=C1\NC(=O)[C@H](CC(N)=O)N(C)C(=O)C([C@@H](C)O)NC(=O)C(CCCc2ccc(OC)cc2)NC(=O)[C@H](C(C)C)NC(=O)/C(=C\C)NC(=O)[C@H](O)[C@@H](C[C@@H](O)CCCCCCC)NC(=O)[C@H](C)NC(=O)CN(C)C(=O)[C@H](CCC(N)=O)NC1=O (stereo partly drawn) (cyclo(A[X6][X7]V[X8][ξThr(3R)][NMeN][Dhb]Q[Sar])) | – | active: 8.2 µM |
| COc1ccc(CCNC(=O)CSc2ncc(C(=O)Nc3ccccc3)c(=O)n2C)cc1 | – | inconclusive [inhibitor, single point] |
| CC1Cc2ccccc2N1S(=O)(=O)c1nnc(NC(=O)c2ccccc2)s1 (centres undefined) | – | inconclusive [inhibitor, single point] |
| Cc1c(NC(=O)Nc2cc(F)c(F)cc2Cl)c(=O)n(-c2ccccc2)n1C | inactive: -5.88% | – |

| Structure (SMILES) | activity change, negative = growth inhibition | Potency |
| --- | --- | --- |
| O=C(CCn1c2c(c3ccccc31)CCCC2)NNC(=O)c1ccc(Cl)c([N+](=O)[O-])c1 | – | inconclusive [inhibitor, partial curve] |
| O=C(NC1=NCCS1)c1cc(-c2cccs2)nc2ccccc12 | inactive: -29.1% | – |
| O=C1NC[C@H](CCCCN2CCN(CCC3CCCCC3)C(=O)C2=O)N(CC2CCCCC2)C1=O | inactive: 3.02% | – |
| CCn1cc2nc(SCC(=O)Nc3ccccc3C(F)(F)F)n(Cc3ccc(C)cc3)c(=O)c2n1 | – | active: 18.4 µM |
| CCCn1nc(Oc2nc(NCC)nc(NCC)n2)ccc1=O | – | inconclusive [inhibitor, single point] |
| N/C(Cc1ccc([N+](=O)[O-])cc1)=N\OC(=O)c1ccc(Br)cc1 | inconclusive: -33.5% [inhibitor] | – |
| Cc1ccc(NC(=O)CN(C)C(=O)COc2cccc3cccnc23)cc1 | – | active: 2.91 µM |
| CCn1cc(C(=O)N2CCN(c3cccc(C)c3C)CC2)c2cc(OC)c(OC)cc2c1=O | – | active: 20.6 µM |
| Cc1cc(NC(=O)NC2(C(F)(F)F)Oc3ccc(Cl)cc3O2)no1 (centres undefined) | – | active: 18.4 µM |
| NNc1ncnc2c1cnn2-c1ccccc1 | – | inconclusive [inhibitor, single point] |
| CCCCN(CC)CCCNC(=O)c1nn(C)c2c1CSc1ccccc1-2 | – | inconclusive [inhibitor, single point] |
| Cc1ccccc1C(=O)n1nc(-c2cccnc2)nc1NCc1ccccc1 | – | inconclusive [inhibitor, single point] |
| Cc1cccc(C)c1OCC(O)Cn1c2ccccc2c2ccccc21 (centres undefined) | – | active: 20.6 µM |
| CC(=O)Nc1cccc(/C(C)=N/NC(=O)c2ccc(O)cc2)c1 | inactive: 16.1% | – |
| Oc1ccccc1C1=Nc2ncnn2C(c2ccc(F)cc2)C1 (centres undefined) | – | inconclusive [inhibitor, single point] |
| Cc1ccc(S(=O)(=O)N2CCN(C(=O)COC(=O)Cc3cccc(C(F)(F)F)c3)CC2)c(C)c1 | – | inconclusive [inhibitor, single point] |
| S=c1nc(C2CCCCC2)[nH]c2ccccc12 | – | inconclusive [inhibitor, partial curve] |
| CCC1CN(Cc2cn[nH]c2-c2ccccc2)Cc2cc(OC)ccc2O1 (centres undefined) | – | active: 18.4 µM |
| COc1ccc(N2CC(NC(=O)C(c3ccccc3)c3ccccc3)CC2=O)cc1OC (centres undefined) | inconclusive: -31.6% [inhibitor] | – |
| COC(=O)c1c(C(=O)OC)c(-c2ccc(C)cc2)n2c1CS(=O)(=O)C2 | inconclusive: -35.3% [inhibitor] | – |
| COc1ccccc1-c1csc(C(O)c2cccc(Cl)c2)n1 (centres undefined) | – | inconclusive [inhibitor, single point] |
| Cc1ccc(C(=O)NCCc2cc3ccc(C)c(C)c3[nH]c2=O)cc1[N+](=O)[O-] | – | inconclusive [inhibitor, full curve] |
| S=c1[nH]nc(-c2cc(-c3ccccn3)nc3ccccc23)o1 | – | inconclusive [inhibitor, partial curve, poor fit] |
